Reference: PubChem BioAssay AID624417 (National Center for Advancing Translational Sciences (NCATS), 2012)
In all, about 410,000 compounds went through this assay and about 6,400 (1.6%) were called active. The inconclusive results got no clear call from the source; some entries with a clear call stand among them for comparison. Calls follow the shape of the dose curve; as a rule, active = well fitted inhibition curve with a large enough effect; inconclusive = small, poorly fitted or top-dose-only effect; inactive = no such curve, though single readings can be large or run the other way. Where the call is inconclusive, the potency comes from a doubtful curve fit.

molecular target: Glucagon-like peptide 1 receptor (Homo sapiens) (UniProt P43220); test: qHTS of GLP-1 Receptor Inverse Agonists (Inhibition Mode); settings: HEK293 GLP-1R CRE-luciferase, luminescence, 24 h, GLP-1R form is constitutively active; series mostly up to 38.3 µM; also: nearly all actives have a fitted effect of over 55% in size
Chain of UniProt P43220 (P43220 whole entry, looked up): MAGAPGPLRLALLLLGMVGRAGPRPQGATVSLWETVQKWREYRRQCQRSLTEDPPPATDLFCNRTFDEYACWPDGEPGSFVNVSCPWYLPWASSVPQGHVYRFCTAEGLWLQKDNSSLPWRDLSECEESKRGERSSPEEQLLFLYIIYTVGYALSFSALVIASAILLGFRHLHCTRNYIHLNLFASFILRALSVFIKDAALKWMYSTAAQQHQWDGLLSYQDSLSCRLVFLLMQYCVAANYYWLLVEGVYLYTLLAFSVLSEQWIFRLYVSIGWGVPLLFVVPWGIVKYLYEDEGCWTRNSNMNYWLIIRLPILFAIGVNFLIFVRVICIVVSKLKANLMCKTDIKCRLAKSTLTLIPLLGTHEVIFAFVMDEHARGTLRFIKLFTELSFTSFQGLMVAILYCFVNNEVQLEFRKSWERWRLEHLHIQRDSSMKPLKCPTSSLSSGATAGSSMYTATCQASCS
Procedure, shortened: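 Inverse agonists were sought by their lowering of basal cAMP reporter luciferase output in HEK293 cells stably carrying constitutively active human GLP-1R, after 24 h compound treatment.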
Potency is read from the fitted curve at half-maximal effect; tags tell the direction and shape of the fitted curve.

Potency, inactive:
Cc1ccc(S(=O)(=O)N/N=C2\C(=O)C3(C)CCC2C3(C)C)cc1 (stereo not drawn)
O=C(Nc1ccc2nc(SCC(=O)N3CCOCC3)sc2c1)c1ccc(F)cc1
O=C(CN1CCC(N2CCCCC2)CC1)N1CCCc2ccccc21
COc1ccccc1C(=O)NC(CCSC)C(=O)NNC(=O)c1ccc(F)cc1 (stereo not drawn)
O=C(Nc1ccccc1F)C(Cc1ccccc1)n1cccc1 (stereo not drawn)
CCc1ccc(S(=O)(=O)c2nnn3c2nc(NCc2cccs2)c2sccc23)cc1
Cc1ccc([N+](=O)[O-])cc1S(=O)(=O)Nc1cccc(S(=O)(=O)NC2=NCCC2)c1
CN1CCN(C(c2ccc(F)cc2)c2sc3nc(-c4ccco4)nn3c2O)CC1 (stereo not drawn)
O=C(NCc1cccs1)c1ccc(N2CCCCC2)nc1
CCn1nc(NS(=O)(=O)c2ccccc2)c2cc3ccc(C)cc3nc21
COc1ccc(N2CCN(C(=O)C3CCN(S(=O)(=O)c4cnc[nH]4)CC3)CC2)cc1
CCOC(=O)C1C(=O)C(C(=O)OCC)C(c2cccnc2)NC1c1cccnc1 (stereo not drawn)
COc1cc2c(cc1OC)CN(C(=O)c1ccc([N+](=O)[O-])o1)CC2
COC(=O)c1ccc(CNC(=O)c2sccc2-c2ccccc2)cc1

Potency, active:
COc1cc(C)cc2oc(=O)c(CC(=O)N3CCN(C(=O)C4COc5ccccc5O4)CC3)c(C)c12 (stereo not drawn) 10 µM

Potency, inconclusive:
Cc1ccc(C(=O)Nc2nc(-c3ccccn3)cs2)s1 1.58 µM [inhibitor, partial curve, poor fit]
COc1cc(-c2cc3nc(NC4CCCCC4)ccn3n2)cc(OC)c1OC 28.2 µM [inhibitor, single point]
CCOc1ccc2c(c1)C(C)=CC(C)(C)N2S(=O)(=O)c1ccc(F)cc1 5.62 µM [inhibitor, full curve, poor fit]
CCCc1nc(C)cc(N2CCN(c3ccccc3)CC2)n1 11.2 µM [inhibitor, single point]
COc1ccc(Cn2c(C(=O)O)c(CNCc3cccs3)c3ccc(C)cc32)cc1 28.2 µM [inhibitor, single point]
O=S1(=O)CCOC[C@H](CC2CCCCC2)N1Cc1ccccc1Br 11.2 µM [inhibitor, partial curve, poor fit]
Cc1ccccc1OCCOC(=O)c1c(-c2ccccc2)noc1C 2.51 µM [inhibitor, partial curve, poor fit]
CN(C)C(CNC(=O)C1CCN(S(=O)(=O)c2ccccc2)CC1)c1ccccc1 (stereo not drawn) 2 µM [inhibitor, full curve]
COc1cc2cncc(Cc3ccc(Cl)cc3)c2cc1OC 28.2 µM [inhibitor, single point]
Cc1nn(-c2ccc([N+](=O)[O-])cc2)c2c1C(c1cccc(Br)c1)N1C(=N2)C(=O)Nc2ccccc21 (stereo not drawn) 1 µM [inhibitor, full curve, poor fit]
N/C(=N\OC(=O)c1cccc(Br)c1)c1ccccc1 28.2 µM [inhibitor, single point]
Cc1ccc(S(=O)(=O)N/N=C/c2ccc(OCC(=O)N3CCOCC3)cc2)cc1 0.501 µM [inhibitor, full curve, poor fit]
Cc1ccc(CN2CCCN(Cc3c(F)cccc3Cl)S2(=O)=O)cc1 28.2 µM [inhibitor, single point]
CC(C)(C)OC(=O)[C@H](Cc1ccccc1)NC(=O)c1nc[nH]c1C(=O)N1CCN(c2ccccc2)CC1 28.2 µM [inhibitor, single point]
CCC(C)(C)C1CCC2(CC1)NC(=S)N(c1ccccc1)N2 (stereo not drawn) 6.31 µM [inhibitor, partial curve, poor fit]
O=C(c1cccc(F)c1)N1CCN(Cc2cccc(Br)c2)CC1 28.2 µM [inhibitor, single point]
O=S(=O)(c1ccccc1Br)N(Cc1ccccc1)CC(O)COCc1ccccc1 (stereo not drawn) 28.2 µM [inhibitor, single point]
Cn1nccc1C(=O)NC1CCCc2c1cnn2-c1cc(F)cc(F)c1 (stereo not drawn) 7.08 µM [inhibitor, partial curve, poor fit]
CCCC[C@@H]1C=C(C(=O)O)[C@H](c2ccc(CC)cc2)N1S(=O)(=O)c1ccc(C)cc1 10 µM [inhibitor, partial curve, poor fit]
CCOC(=O)c1cnn(-c2ccccc2)c1-n1cccc1C(=O)C(=O)Nc1ccccc1 15.8 µM [inhibitor, partial curve, poor fit]
O=C(Nc1ccc2c(c1)OCCO2)C(c1cc2ccccc2o1)N1CCN(c2ccc(F)cc2)CC1 (stereo not drawn) 17.8 µM [inhibitor, partial curve, poor fit]
O=C(CN1CCCCC1)N1c2ccccc2Sc2ccc(C(F)(F)F)cc21 11.2 µM [inhibitor, partial curve, poor fit]
Cc1ccc(S(=O)(=O)N2CCC(=O)N(C(COCc3cccc(C(F)(F)F)c3)Cc3ccccc3)CC2)cc1 (stereo not drawn) 7.94 µM [inhibitor, partial curve, poor fit]
Oc1ccc2ccccc2c1N=Nc1nccs1 1.41 µM [inhibitor, full curve, poor fit]
CCCCNC(=S)N1CCN(c2ccc(C(C)=O)cc2)CC1 28.2 µM [inhibitor, single point]
N#CC(c1ccccc1)N(CCCCl)C(=O)c1ccc(Br)cc1 (stereo not drawn) 20 µM [inhibitor, single point]
CCOC(=O)CSc1nc2nc(Cl)c(Cl)nc2[nH]1 28.2 µM [inhibitor, single point]
COC(=O)C1=CN(c2ccc(Oc3ccccc3)cc2)C(N)=C(C#N)C1c1cccc(F)c1 (stereo not drawn) 11.2 µM [inhibitor, single point]
Cc1cc(C)cc(NC(=O)Nc2cccc(S(N)(=O)=O)c2)c1 3.98 µM [inhibitor, partial curve, poor fit]
Cc1cccc(-c2cnn(-c3ccccc3)c2N)c1 28.2 µM [inhibitor, partial curve, poor fit]
CSCCC(c1nnnn1C1CCCCC1)N1CCN(C/C=C/c2ccccc2)CC1 (stereo not drawn) 22.4 µM [inhibitor, single point]
CN1C/C(=C/c2ccsc2)C(=O)/C(=C/c2ccsc2)C1 28.2 µM [inhibitor, single point]
CCc1ccc(CNC(=O)C(CC)n2ccc3cc(S(=O)(=O)N4CCCCC4)ccc32)cc1 (stereo not drawn) 12.6 µM [inhibitor, partial curve, poor fit]
Cc1nc(-c2ccc(NC(=O)c3ccccc3Br)cc2)cs1 12.6 µM [inhibitor, single point]
COc1ccc(CNS(=O)(=O)c2cc(C(=O)Nc3cc(Cl)cc(Cl)c3)ccc2F)cc1 28.2 µM [inhibitor, single point]
Cc1ccc(C)c(S(=O)(=O)N2CCCOC2CNC(=O)C(=O)NCCc2ccco2)c1 (stereo not drawn) 10 µM [inhibitor, single point]
O=C(CCCc1ccccc1)NCCC1=CCCCC1 28.2 µM [inhibitor, single point]
Cc1ccc(S(=O)(=O)N2CCN(C(=O)CSc3cc(C)ccc3C)CC2)c(C)c1 12.6 µM [inhibitor, partial curve, poor fit]
O=C(CN(Cc1ccccc1)C1=NCCS1)c1ccccc1 8.91 µM [inhibitor, partial curve, poor fit]
CC(C)CNC(=S)N1CCC(C(=O)c2ccc3c(c2)OCCO3)CC1 8.91 µM [inhibitor, partial curve, poor fit]
O=C(COc1ccccc1C(=O)NCc1ccncc1)Nc1ccc(Br)cc1 11.2 µM [inhibitor, partial curve, poor fit]
CCOc1ccc(N(CC(=O)N2CCN(c3ccccc3OC)CC2)S(=O)(=O)c2ccc(F)cc2)cc1 10 µM [inhibitor, single point]
C=CC[C@H](CC(=O)N(CCO)Cc1ccccc1)C(=O)N[C@H](C)COC(=O)[C@@H](CC=C)CC(=O)OC(C)(C)C 10 µM [inhibitor, single point]
CC(=O)Nc1ccc(Nc2nc3ccccc3nc2NS(=O)(=O)c2ccc(Cl)c([N+](=O)[O-])c2)cc1 25.1 µM [inhibitor, single point]
Cc1ccsc1/C=N/Nc1ccc(F)cc1F 10 µM [inhibitor, single point]
CN(c1ccccc1)S(=O)(=O)c1cccc(NC(=O)c2ccc3ncsc3c2)c1 10 µM [inhibitor, partial curve, poor fit]
COCCCNc1nnc(Cc2ccc(Cl)cc2)c(=O)[nH]1 0.501 µM [inhibitor, full curve, poor fit]
CC(C)c1nc(SCC(=O)Nc2cccc(C(F)(F)F)c2)c2c(=O)n(C)c(=O)n(C)c2n1 1.12 µM [inhibitor, full curve]
